# Experimental data published in PubChem BioAssay AID463173 (ICCB-Longwood Screening Facility, Harvard Medical School, 2010).
# About 1,700 (3.3%) of roughly 52,000 compounds were called active. No stated cut-off is given here; in the data, active means survival mostly below about 52% (no sharp cut-off); inactive means mostly above about 56%. The list shows a part of the results.
# System: Wild type
# Assay: growth inhibition of S. aureus wild type versus tarO mutant, primary screen, teichoic acid synthesis inhibitors, RN4220, OD600 (AID 463173)
# Conditions: S. aureus RN4220 wild type/DeltatarO growth, OD600, 18 h, stronger effect = lower value, screened at 18.75 µg/mL (by protocol)
row,SMILES,survival
1,CCCCOc1ccc(CSCCN=C(N)N)cc1,inactive: 54%
2,Cc1ccc(SCC(=O)Nc2ccc3oc(-c4ccccc4F)nc3c2)cc1,inactive: 74%
3,CCOC(=O)c1ccccc1NC(=O)c1cnc(N2CCOCC2)c2ccccc12,inactive: 73%
4,COc1ccc(CNC(=O)Cn2c(-c3ccccc3)cc(C(C)=O)c2C)cc1OC,inactive: 81%
5,CCN(CC)c1nn2c(=O)c(C(=O)NCc3ccc(N(C)C)cc3)cnc2s1,inactive: 105%
6,Cc1nn(C)c(C)c1CCNC(=O)Nc1ccccc1C(F)(F)F,active: 1%
7,COc1ccc(N2CC(NC(=O)/C=C\c3ccccc3)CC2=O)cc1OC (configuration not stated),inactive: 74%
8,O=C(NCc1cccs1)c1ccc(CSc2nc3ccncc3n2Cc2ccccc2F)cc1,inactive: 135%
9,CCC(=O)N1CCc2cc(S(=O)(=O)NC(C(=O)NCCc3cccc(C)c3)C(C)C)ccc21 (configuration not stated),inactive: 84%
10,CN(Cc1ccco1)S(=O)(=O)c1nnc(NC(=O)c2ccccc2Cl)s1,inactive: 84%
11,CC(=O)Nc1cccc(NC(=O)CCn2cnc3cc(C)c(C)cc32)c1,inactive: 103%
12,COc1cc(Cl)c(C)cc1Nc1nc2ccccc2n2cnnc12,inactive: 127%
13,CC1CCCN(CCCNC(=O)c2cc3c(Cl)nc4ccccc4c3s2)C1 (configuration not stated),inactive: 82%
14,COc1ccc(C(=O)CCC(=O)Nc2ccc(C)c(Cl)c2)cc1,inactive: 72%
15,CCc1ccccc1N(C)C(=O)c1sc2nc3n(c(=O)c2c1C)CCCCC3,inactive: 67%
16,Cc1ccc(C2c3[nH]c4ccccc4c3CCN2C(=O)CSCc2ccc(F)cc2)cc1 (configuration not stated),inactive: 92%
17,O=C(NCCc1csc(-c2ccc(F)cc2)n1)c1cccc(F)c1,inactive: 90%
18,COc1ccccc1CNC(=O)C1CCN(S(=O)(=O)c2cn(C)cn2)CC1,active: -3%
19,COC(=O)C1(c2ccccc2)NC(c2ccc(O)cc2)C2C(=O)N(c3ccc4c(c3)OCCO4)C(=O)C21 (configuration not stated),inactive: 106%

row,SMILES,survival
1,Cc1ccc(CN2CCCn3nc(C(=O)NCc4ccc(N(C)C)cc4)cc3C2=O)cc1,inactive: 73%
2,COc1ccc(CCNc2nc3c(-c4cccc(C(F)(F)F)c4)nnn3c3ccccc23)cc1OC,inactive: 83%
3,Clc1ccc(-c2cc3ncc4c(n3n2)-c2ccccc2OC4)cc1,inactive: 78%
4,O=C(Nc1ccccc1-c1nc2ccccc2s1)c1ccc(F)cc1,inactive: 64%
5,CCN1C(=O)C(C(=O)NC(C)c2ccccc2)C2CC1(C)Oc1ccccc12 (configuration not stated),inactive: 103%
6,O=C(CSc1nc2ccsc2c(=O)n1-c1ccc(Cl)cc1)NCc1ccc(Cl)cc1,inactive: 77%
7,CC1CCN(c2nc(-c3ccc(C(C)(C)C)cc3)nc3ccccc23)CC1,active: 3%
8,CCC(=O)N1CCc2cc(S(=O)(=O)NCCC(=O)Nc3ccc(CC)cc3)ccc21,inactive: 73%
9,CCOc1ccc(NC(=O)c2cc3cc(C)ccc3n2C)cc1,inactive: 81%
10,CC(C)CNC(=O)Nc1cc(C(=O)NCc2ccc(C(C)C)cc2)ccc1N1CCCC1,inactive: 75%
11,CCOc1ccc(NC(=O)c2oc3ccccc3c2NC(=O)C(C)(C)C)cc1,inactive: 33%
12,COc1ccccc1NC(=O)CSc1oc(-c2ccco2)nc1S(=O)(=O)c1ccc(C)cc1,inactive: 75%
13,COc1ccc(CCNC(=O)c2c(O)nc3ccccn3c2=O)cc1OC,inactive: 68%
14,O=C(CC1N=C2c3ccccc3N=C(SCC(=O)Nc3ccc(F)cc3)N2C1=O)NCc1ccco1 (configuration not stated),inactive: 83%
15,CCOc1ccc2nc(N3CCCC(C(=O)Nc4ccc(OC)cc4)C3)sc2c1 (configuration not stated),inactive: 70%
16,Cc1ccc(C(=O)Nc2nnc(S(=O)(=O)N(C)Cc3ccc(Cl)cc3)s2)cc1,inactive: 124%
17,COc1cc(Nc2ncc3c(n2)CCN(Cc2ccc(OC(C)C)c(OC)c2)C3)cc(OC)c1,inactive: 127%
18,COc1ccc(NC(=O)c2csnn2)cc1Cl,inactive: 85%
19,CCc1nn2c(=O)cc(COC(=O)c3ccc(NC(=O)COc4ccccc4C)cc3)nc2s1,inactive: 85%

row,SMILES,survival
1,Cc1ccc(NC(=O)N2CC3CCCN3c3ccccc32)cc1Cl (configuration not stated),inactive: 83%
2,O=C(Cn1ncc2c3ccccc3n(Cc3ccccc3F)c2c1=O)N1CCCCCC1,inactive: 77%
3,CCN1CCN(c2nnc(-n3cccc3C(=O)NCc3ccccc3OC)s2)CC1,inactive: 64%
4,O=C(c1noc2c1CCCCC2)N1CCN(c2cccc(Cl)c2)CC1,inactive: 73%
5,Cc1ccccc1OC(=O)c1cc(-c2ccc3c(c2)OCCO3)on1,active: -6%
6,Cc1ccc(C(C(=O)NCc2ccccc2)N(C(=O)c2snc(C(N)=O)c2N)c2ccc3c(c2)OCCO3)o1 (configuration not stated),inactive: 94%
7,COc1ccc(NC(=O)C2CCN(C3=NS(=O)(=O)C(c4ccc(C)c(C)c4)=C3C)CC2)c(OC)c1,inactive: 119%
8,Cc1ccc(C)c(NC(=O)Cc2coc3cc(C)cc(C)c23)c1,inactive: 98%
9,O=C(NCCc1csc(-c2cccc(F)c2)n1)C(=O)Nc1cc(F)ccc1F,inactive: 82%
10,COc1cccc(CNC(=O)C2CCN(S(=O)(=O)c3c(C)noc3/C=C/c3cccs3)CC2)c1,inactive: 94%
11,COc1ccc(C)cc1NS(=O)(=O)c1cnc(N)nc1,inactive: 60%
12,O=C(c1cc2ccc3cccnc3c2[nH]1)N1CCCCC1,inactive: 69%
13,CCc1ccccc1NC(=O)Cn1nnc2sc3c(c2c1=O)CCC(C(C)(C)C)C3 (configuration not stated),inactive: 93%
14,CCOC(=O)c1cc2c(=O)n3ccccc3nc2n(CC2CCCO2)c1=NC(=O)c1ccccc1Br (configuration not stated),inactive: 65%
15,CCOC(=O)Nc1ccc2c(c1)N(C(=O)CN1CCOCC1)c1ccccc1CC2,inactive: 103%
16,CCOC(=O)c1sc2ncn(CC(=O)Nc3cc(Cl)ccc3C)c(=O)c2c1C,inactive: 69%
17,CC(=O)c1ccc(N2CCN(C(=O)c3cc(S(=O)(=O)N4CCCCCC4)cn3C)CC2)cc1,inactive: 75%
18,Cc1cccc(NC(=O)CSc2ccc(-c3sc(-c4ccccc4)nc3C)nn2)c1C,inactive: 62%
19,CC(=O)Nc1cccc(NC(=O)CSc2nccn2Cc2ccc3c(c2)OCO3)c1,inactive: 82%
